# The list shows a part of the results. The energies were worked out here from pooled read counts, against the library average; single values are noisy.
# Target: T1, Pho4 (S. cerevisiae) (UniProt P07270)
# T1 sequence: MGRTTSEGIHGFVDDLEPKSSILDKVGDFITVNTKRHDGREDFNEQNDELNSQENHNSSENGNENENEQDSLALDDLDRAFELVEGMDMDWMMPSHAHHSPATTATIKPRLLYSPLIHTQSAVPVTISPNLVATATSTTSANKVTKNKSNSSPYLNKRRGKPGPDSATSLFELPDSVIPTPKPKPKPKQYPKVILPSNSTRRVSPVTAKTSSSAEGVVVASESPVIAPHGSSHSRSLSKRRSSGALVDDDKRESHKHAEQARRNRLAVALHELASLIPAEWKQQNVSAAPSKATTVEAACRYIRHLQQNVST
# Assay: relative binding free energy (BET-seq); higher = weaker binding
# Conditions: reference: library average
row,Sequence,relative binding free energy [kcal/mol]
1,GTTCACACGTGGGAAG,0.13
2,CGGGTCACGTGTCGTT,0.15
3,GGTTGCACGTGTGTCT,0.08
4,GGTGGCACGTGTCGAT,0.09
5,TGGTGCACGTGTGAGA,-0.01
6,ATAAGCACGTGTGTAT,-0.08
7,GGCGGCACGTGAGAGG,0.11
8,TGGGTCACGTGGGTAG,0.05
9,TGAGCCACGTGTTATG,-0.01
10,CGGGGCACGTGATGGA,0.03
11,AAGGTCACGTGAGTTG,0.3
12,TGCGGCACGTGGGAAG,-0.2
13,GTCATCACGTGTTATT,0.18
14,ATTCACACGTGTGGAA,0.19
15,TTTTACACGTGCAAGG,0.1
16,TGGTTCACGTGCCGAT,0.33
17,GAGTTCACGTGCTATG,0.26
18,GGTACCACGTGTGTGA,0.01
19,AAGTTCACGTGAGTGA,0.26
20,TGGTGCACGTGCAGGG,-0.07
21,AGCGTCACGTGGGCGC,0
22,GTCGACACGTGAGAGG,0.26
23,TTTTCCACGTGATTTA,0.15
24,GTGGGCACGTGTTAAA,0.07
25,TTAGGCACGTGACGTA,0.02
26,CGATACACGTGGGTTG,-0.18

row,Sequence,relative binding free energy [kcal/mol]
1,ATGTGCACGTGAATTA,0.05
2,AAGTCCACGTGTTGGA,0.17
3,TTAGTCACGTGTTGAC,0.04
4,TGCGCCACGTGGGGGG,-0.25
5,ATGTCCACGTGGTGTT,-0.14
6,TGAGGCACGTGCGTTC,-0.05
7,TAAAGCACGTGCGGTA,-0.06
8,CTTGTCACGTGCGGGC,0.2
9,TGGGCCACGTGCGTTT,-0.12
10,CTTGGCACGTGTCGGT,-0.21
11,GTTGGCACGTGCGTTT,-0.13
12,TTGGGCACGTGCTTTG,-0.09
13,TTTCCCACGTGTAGGT,0.11
14,AAGTTCACGTGCGGTA,0.23
15,GAGTGCACGTGTAAAT,0.19
16,TTTTGCACGTGTATGA,0.1
17,TTGGGCACGTGAGAAT,0.26
18,TGTGACACGTGCTTAT,-0.08
19,GTTGACACGTGGATTT,0.16
20,ATCTGCACGTGGGGGG,-0.13
21,CGCGTCACGTGTGTTG,-0.04
22,ATGTTCACGTGAAGGT,0.44
23,TAGGGCACGTGTGGTT,0.02
24,GGCTCCACGTGGGTTG,-0.15
25,TAATACACGTGGATGG,-0.03
26,GAGGTCACGTGGCGGA,0.14

row,Sequence,relative binding free energy [kcal/mol]
1,AGGGACACGTGATATA,0.07
2,GGTCGCACGTGTGTGT,0.05
3,TGTTTCACGTGGCCGG,0.11
4,TTGGGCACGTGGCTGA,-0.23
5,GTGCGCACGTGATTTG,0.01
6,TGTTGCACGTGAAAAA,0.32
7,ATTGACACGTGAATGA,0.25
8,TCGTCCACGTGGGAGG,-0.06
9,TGAGGCACGTGGAGAG,-0.14
10,GTGAACACGTGCATGG,0
11,GTTAACACGTGGTTAG,0.05
12,TTGCACACGTGGTGCT,-0.06
13,TGGTTCACGTGAGTGA,0.32
14,TATTTCACGTGGCGGC,0.21
15,TAGCGCACGTGGTGAA,-0.13
16,TAATACACGTGGGTCT,-0.09
17,TCTTACACGTGGCGTT,0.15
18,GCGTACACGTGTTTTA,0.23
19,TGATTCACGTGAGTTA,0.33
20,GCCGTCACGTGGTTTT,0.22
21,TCGTGCACGTGCAGTT,-0.1
22,ATCTTCACGTGATAGG,0.1
23,CTAGTCACGTGCTGTT,0.03
24,AAGTTCACGTGGGACG,0.22
25,TGGGCCACGTGAGATG,0.05
26,TGGTTCACGTGGCTAG,0.24

row,Sequence,relative binding free energy [kcal/mol]
1,TTAGGCACGTGGAGTA,-0.07
2,ATTAGCACGTGGGATT,-0.07
3,TAAATCACGTGGTCTT,0.08
4,GGGAGCACGTGTTTAA,-0.01
5,TGGTTCACGTGCTTTC,0.31
6,TAATCCACGTGGGTTG,0
7,GTTGCCACGTGGAAGG,-0.11
8,TATAGCACGTGTGTGG,-0.04
9,CGTAGCACGTGTATGG,-0.13
10,AGAGGCACGTGTGCGC,-0.08
11,ATTATCACGTGCGGTG,0.13
12,TGAGGCACGTGATAGA,-0.09
13,GTTTGCACGTGGAGAA,0.16
14,GTAAGCACGTGTATGC,0.01
15,CAGGTCACGTGAGTAG,0.18
16,ATGATCACGTGCTTGG,0.06
17,TGGTGCACGTGTTACT,0.05
18,GGTCACACGTGTGCGG,0.08
19,TGGAACACGTGGGTAT,0
20,CCGGTCACGTGGGTTG,-0.16
21,CGATACACGTGGGGGT,-0.06
22,TTGTACACGTGCGGAT,0.05
23,GTTGGCACGTGGGGAC,-0.22
24,GAAGGCACGTGATGGG,0.01
25,TGAGGCACGTGGCTTG,-0.18
26,GTGGGCACGTGCGTGG,-0.17

row,Sequence,relative binding free energy [kcal/mol]
1,TTATGCACGTGCTGTG,-0.09
2,TTTTACACGTGAAGAG,0.24
3,CGTGTCACGTGTGGCC,0.26
4,TGGTACACGTGCGCGT,-0.04
5,AGTTGCACGTGTCGTA,0.03
6,AGGCGCACGTGAGCTG,0.17
7,AAGTCCACGTGGTGGG,0.03
8,TCCGGCACGTGATGTT,0
9,GTGTGCACGTGCGTGC,-0.25
10,TATGACACGTGGATAG,0.09
11,GATCGCACGTGGAGGG,0.01
12,GTTATCACGTGGGTGG,0.12
13,AAAGTCACGTGGGGGC,-0.11
14,TATATCACGTGTTGTT,0.1
15,TAGCGCACGTGGTGTG,-0.29
16,ATGATCACGTGGCGGT,0.15
17,ATTAGCACGTGAGTTG,0.01
18,GATTTCACGTGTTCTT,0.29
19,ACGAACACGTGGAGGG,0.07
20,GTAGGCACGTGTGCGC,-0.08
21,GGTATCACGTGTGTAT,0.19
22,GGAATCACGTGTTGGT,0.29
23,AGGTGCACGTGTGTAT,0.01
24,GGGGTCACGTGTAATC,0.27
25,TGGGGCACGTGTAGGG,0.04
26,AGTTTCACGTGGCCTT,0.34

row,Sequence,relative binding free energy [kcal/mol]
1,GTAATCACGTGGTGTC,0.05
2,GGGTTCACGTGCTCGG,0.2
3,TTAGGCACGTGCAGCG,-0.15
4,CTGTACACGTGAGGTG,0.24
5,AGTTACACGTGGGCCT,0.09
6,AAGTCCACGTGTGTGT,-0.06
7,TTTTGCACGTGGAAGT,0.11
8,GGTTACACGTGGGGAT,0.09
9,CGGTGCACGTGCTGTT,-0.11
10,AAACTCACGTGTTGTA,0.39
11,AAATGCACGTGAAGTT,0.34
12,GATTTCACGTGAATTT,0.57
13,TGTAGCACGTGGGCTT,-0.17
14,GGTCTCACGTGAAGTG,0.44
15,GACGGCACGTGGGGTC,-0.16
16,GCAGGCACGTGATGGT,-0.07
17,GTGAGCACGTGGGAGC,-0.27
18,CCGGGCACGTGAGAGG,0.03
19,TTTTGCACGTGGTCGT,-0.05
20,GGTAGCACGTGTCGGG,-0.03
21,GCAGTCACGTGCGGTG,0.01
22,TTTTGCACGTGGTGAC,-0.01
23,GTTGTCACGTGACTTA,0.32
24,TAGTGCACGTGGCAGG,-0.17
25,GAGTTCACGTGACGGG,0.38
26,GTGGACACGTGGTGGC,-0.05

row,Sequence,relative binding free energy [kcal/mol]
1,ATTTGCACGTGTTATA,-0.01
2,GTTGGCACGTGTAAAA,0.16
3,TAAATCACGTGGTGAT,0.09
4,GTTGACACGTGAAGGT,0.38
5,TAGTACACGTGAGGTG,0.19
6,AGGTGCACGTGAGGCT,0.13
7,CGAGGCACGTGTGGGG,0
8,AGTGGCACGTGGTACG,-0.29
9,CGTTGCACGTGGAAGT,0.06
10,TAGAACACGTGGTGGG,0.02
11,TGATACACGTGTAGGG,0.14
12,AGCAACACGTGTTGGG,-0.03
13,GTTTACACGTGGTTCG,0.09
14,GGAGGCACGTGGTGAC,-0.13
15,GTATGCACGTGTTGTT,-0.04
16,TAGGCCACGTGTGTGT,-0.12
17,GGTCACACGTGAGGGC,0.34
18,TTGCACACGTGAGTGT,0.18
19,TTTGCCACGTGGTAAG,-0.15
20,GATTTCACGTGAGTAT,0.48
21,AGTTTCACGTGGCTAT,0.17
22,GAGTTCACGTGGCGGC,0.25
23,TTTGTCACGTGTCTCG,0.14
24,AAGGGCACGTGAAATT,0.27
25,TAGTTCACGTGAGGGT,0.35
26,AATGTCACGTGATCTT,0.24

row,Sequence,relative binding free energy [kcal/mol]
1,ATATTCACGTGGCGAT,0.16
2,AAGGACACGTGATGGG,0.09
3,ATCGTCACGTGGGCTT,0.06
4,GACGTCACGTGTACGG,0.42
5,ATAGGCACGTGGTGAG,-0.18
6,TCTTTCACGTGGTTTC,0.26
7,AGTTGCACGTGCTGGT,-0.04
8,ACTGGCACGTGTTGTG,-0.15
9,ATTTTCACGTGCTTTG,0.12
10,CGATTCACGTGTTTTT,0.21
11,TTTACCACGTGTTTTT,-0.05
12,TGTCACACGTGTGCTT,0.15
13,AAGTTCACGTGTTTCG,0.22
14,AGTTACACGTGGGAAG,0.11
15,AGTAACACGTGGTAGG,-0.13
16,TTGGTCACGTGAAGTT,0.38
17,GCTCGCACGTGGGGGA,-0.08
18,GAATTCACGTGCGGGT,0.36
19,AGGCTCACGTGGTATG,0
20,TTAATCACGTGGTTGG,0.13
21,ATTTTCACGTGATCGT,0.16
22,AATAGCACGTGACGTG,0.06
23,TGCGTCACGTGTCTGT,0
24,GGAGTCACGTGATGGT,0.24
25,TGTAACACGTGAGTAA,0.11
26,GATTTCACGTGCGTAT,0.2

row,Sequence,relative binding free energy [kcal/mol]
1,TTAGTCACGTGGATTA,0.18
2,GATAGCACGTGGGGCT,-0.16
3,CTTATCACGTGTTAAG,0.2
4,TTATGCACGTGGGATA,-0.17
5,TTTTTCACGTGTGGCG,0.41
6,CGGGTCACGTGTTAAT,0.24
7,TTTTGCACGTGGATCT,0.02
8,GCGTTCACGTGGTTGC,0.2
9,TTCTGCACGTGTTGTA,0.04
10,GGCTACACGTGAGGGA,0.39
11,GGTATCACGTGATTAT,0.13
12,CGTTGCACGTGTGAAT,0.22
13,TGGAGCACGTGGATGT,0.03
14,CGGCGCACGTGTGGGG,-0.04
15,ATGGGCACGTGTTATT,-0.14
16,TAATACACGTGGGCTT,-0.16
17,ACGTTCACGTGTGGTA,0.16
18,ATTTTCACGTGGCGGC,0.29
19,GTACGCACGTGTAGGT,-0.03
20,CGCTTCACGTGTTGGT,0.23
21,TCTGCCACGTGGTTTT,-0.07
22,TAATACACGTGGGGAA,-0.03
